Reference: the supplement of paper PMC4967469
By IC50 is meant the dose at which the fit gives 50% viability; a limit (>, <) means that the fit lies beyond the doses tested. For AUC the same curve is integrated over the 256-fold range of doses and scaled to a fraction; the more sensitive the line, the further below 1. For some assays here: A top dose marked as inferred was calculated from the reported fits. For some assays here: Drugs with an entry number were screened twice under separate entries, and the two screens often disagree.

How the values were obtained:
Test in all cases: Viability of human cancer cell lines after 72 h of drug (GDSC screen)
[1] = compound: COC(=O)[C@H](CCSC)NC(=O)c1ccc(NC[C@@H](N)CS)cc1-c1ccccc1 [FTI-277]; conditions: top dose 1.024 µM; top dose inferred
Protocol: (§1)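 Human cancer cell lines in 384-well plates, medium with 10% serum, drug for 72 h over a 256-fold dose range (nine 2-fold or five 4-fold steps up to the top dose). Adherent lines were fixed and stained with the nucleic acid dye Syto60, suspension lines read with resazurin; signal relative to control wells, capped at 0 and 100%. One two-parameter sigmoid per drug and line, fitted in a mixed model over all curves with the slope shared within a line.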

[2] = compound: C[C@]1(O)C[C@@H](c2nc(-c3ccc4ccc(-c5ccccc5)nc4c3)c3c(N)nccn32)C1 [OSI-906]; conditions: top dose 2.56 µM; top dose inferred
Protocol: as §1

[3] = compound: CC1(C)CNc2cc(NC(=O)c3cccnc3NCc3ccncc3)ccc21 [AMG-706]; conditions: top dose 2 µM; top dose inferred
Protocol: as §1

[4] = compound: c1ccc2c(CCNc3ccc(Nc4ccncc4)cc3)c[nH]c2c1 [JNJ-26854165]; conditions: top dose 10 µM
Protocol: as §1

[5] = compound: Cc1sc2c(c1C)C(c1ccc(Cl)cc1)=N[C@@H](CC(=O)OC(C)(C)C)c1nnc(C)n1-2 [JQ1]
Protocol: as §1

[6] = compound: CCOc1nc(NC(=O)Cc2cc(OC)ccc2OC)cc(N)c1C#N [JNK Inhibitor VIII]; conditions: top dose 10 µM; top dose inferred
Protocol: as §1

[7] = compound: COCC[n+]1c2c(n(Cc3cnccn3)c1C)C(=O)c1ccccc1C2=O [YM155]; conditions: top dose 5.12 µM
Protocol: as §1

[8] = compound: O=C(/C=C/c1cccc(S(=O)(=O)Nc2ccccc2)c1)NO [Belinostat]; conditions: top dose 20 µM; top dose inferred
Protocol: as §1

[9] = compound: Cc1ccc(C(=O)N(CCCN)[C@@H](c2nc3cc(Cl)ccc3c(=O)n2Cc2ccccc2)C(C)C)cc1 [SB-715992]; conditions: top dose 0.128 µM; top dose inferred
Protocol: as §1

[10] = compound: CN1CCN(c2ccc([N+](=O)[O-])c3no[n+]([O-])c23)CC1 [NSC-207895]; conditions: top dose 20 µM; top dose inferred
Protocol: as §1

[11] = compound: CC(=O)O[C@@]12CO[C@@H]1C[C@H](O)[C@@]1(C)C(=O)[C@H](O)C3=C(C)[C@@H](OC(=O)[C@H](O)[C@@H](NC(=O)OC(C)(C)C)c4ccccc4)C[C@@](O)([C@@H](OC(=O)c4ccccc4)[C@H]21)C3(C)C [Docetaxel]; conditions: top dose 0.0125 µM
Protocol: as §1

[12] = top dose 1 µM, screen: GDSC drug entry 1218, top dose inferred
[13] = top dose 2.56 µM, screen: GDSC drug entry 163

Row | Cell Line | AUC [1] | IC50 [1] | AUC [2] | IC50 [2] | AUC [3] | IC50 [3] | AUC [4] | IC50 [4] | AUC [5, 12] | IC50 [5, 12] | AUC [5, 13] | IC50 [5, 13] | AUC [6] | IC50 [6] | AUC [7] | IC50 [7] | AUC [8] | IC50 [8] | AUC [9] | IC50 [9] | AUC [10] | IC50 [10] | AUC [11] | IC50 [11]
1 | DBTRG-05MG (glioma, adherent) | 0.98 | > 1.02 µM | 0.955 | > 2.56 µM | 0.976 | > 2 µM | 0.896 | > 10 µM | 0.974 | > 1 µM | 0.843 | 2.29 µM | 0.982 | > 10 µM | 0.132 | < 0.02 µM | 0.605 | 2.56 µM | 0.878 | > 0.128 µM | 0.978 | > 20 µM | 0.642 | 0.00207 µM
2 | DK-MG (glioma, adherent) | 0.96 | > 1.02 µM | 0.846 | > 2.56 µM | 0.907 | > 2 µM | 0.825 | > 10 µM | 0.848 | > 1 µM | 0.923 | > 2.56 µM | 0.959 | > 10 µM | 0.077 | < 0.02 µM | 0.613 | 2.97 µM | 0.974 | > 0.128 µM | 0.883 | > 20 µM | 0.899 | > 0.0125 µM
3 | DoTc2-4510 (cervix, adherent) | 0.986 | > 1.02 µM | 0.906 | > 2.56 µM | 0.984 | > 2 µM | 0.909 | > 10 µM | 0.987 | > 1 µM | 0.462 | 0.127 µM | 0.986 | > 10 µM | 0.028 | < 0.02 µM | 0.491 | 1.18 µM | 0.951 | > 0.128 µM | 0.879 | 18.8 µM | 0.814 | 0.00634 µM
4 | ECC10 (stomach, suspension) | 0.947 | > 1.02 µM | 0.811 | 1.44 µM | 0.972 | > 2 µM | 0.865 | 9.52 µM | 0.562 | 0.0933 µM | 0.617 | 0.341 µM | 0.982 | > 10 µM | 0.18 | 0.0329 µM | 0.587 | 2.18 µM | 0.928 | > 0.128 µM | 0.819 | 12 µM | 0.799 | 0.0063 µM
5 | EFM-192A (breast, adherent) | 0.822 | 0.687 µM | 0.883 | > 2.56 µM | 0.986 | > 2 µM | 0.92 | > 10 µM | 0.983 | > 1 µM | 0.705 | 0.649 µM | 0.986 | > 10 µM | 0.104 | < 0.02 µM | 0.6 | 2.42 µM | 0.953 | > 0.128 µM | 0.973 | > 20 µM | 0.891 | > 0.0125 µM
6 | EFO-21 (ovary, adherent) | 0.98 | > 1.02 µM | 0.971 | > 2.56 µM | 0.964 | > 2 µM | 0.844 | > 10 µM | 0.967 | > 1 µM | 0.708 | 0.806 µM | 0.97 | > 10 µM | 0.052 | < 0.02 µM | 0.666 | 4.45 µM | 0.814 | 0.112 µM | 0.978 | > 20 µM | 0.836 | > 0.0125 µM
7 | EFO-27 (ovary, adherent) | 0.972 | > 1.02 µM | 0.981 | > 2.56 µM | 0.977 | > 2 µM | 0.897 | > 10 µM | 0.973 | > 1 µM | 0.63 | 0.401 µM | 0.98 | > 10 µM | 0.06 | < 0.02 µM | 0.403 | 0.634 µM | 0.903 | > 0.128 µM | 0.922 | > 20 µM | 0.573 | 0.0013 µM
8 | EGI-1 (biliary tract, adherent) | 0.969 | > 1.02 µM | 0.906 | > 2.56 µM | 0.982 | > 2 µM | 0.92 | > 10 µM | 0.98 | > 1 µM | 0.873 | > 2.56 µM | 0.964 | > 10 µM | 0.166 | 0.0211 µM | 0.695 | 5.24 µM | 0.884 | > 0.128 µM | 0.973 | > 20 µM | 0.735 | 0.00455 µM
9 | EN (endometrium, adherent) | 0.983 | > 1.02 µM | 0.976 | > 2.56 µM | 0.983 | > 2 µM | 0.907 | > 10 µM | 0.982 | > 1 µM | 0.978 | > 2.56 µM | 0.974 | > 10 µM | 0.049 | < 0.02 µM | 0.452 | 0.895 µM | 0.923 | > 0.128 µM | 0.875 | > 20 µM | 0.827 | 0.0106 µM
10 | ESS-1 (endometrium, adherent) | 0.986 | > 1.02 µM | 0.988 | > 2.56 µM | 0.98 | > 2 µM | 0.893 | – | 0.989 | > 1 µM | 0.756 | 0.794 µM | 0.982 | > 10 µM | 0.02 | < 0.02 µM | 0.353 | 0.512 µM | 0.888 | 0.119 µM | 0.679 | 3.73 µM | 0.671 | 0.00221 µM
11 | EW-7 (Ewing sarcoma, semi-adherent) | 0.987 | > 1.02 µM | 0.542 | 0.205 µM | 0.99 | > 2 µM | 0.946 | > 10 µM | 0.988 | > 1 µM | 0.95 | > 2.56 µM | 0.989 | > 10 µM | 0.019 | < 0.02 µM | 0.296 | 0.362 µM | 0.798 | 0.0526 µM | 0.927 | > 20 µM | 0.966 | > 0.0125 µM
